The values below come from the antibiotic and cytotoxicity screens of Wong et al. (2023).

One assay relates to HSkMC. The assay is described as follows: cytotoxicity call (relative viability < 0.9). To be noted: 10 µM.
The next assay deals with HepG2. The assay is described as follows: cytotoxicity call (relative viability < 0.9). To be noted: 10 µM.
The next assay has as its system S. aureus RN4220. The assay is described as follows: growth inhibition call (relative growth <= 0.2). To be noted: 50 µM.

Some of the results follow.

Consider `Cc1ccc(S(=O)(=O)Nc2ccc3c(c2)C(=O)N([C@H](C)CO)C[C@@H](C)[C@H](CN(C)C(=O)c2ccccc2)OCCCC[C@@H](C)O3)cc1`, for which the cytotoxicity call in the assay on HSkMC and in the assay with HepG2 was “inactive” throughout. Besides, the growth inhibition call with S. aureus RN4220 was “inactive”.

Turning to `C[C@H](CO)N1C[C@H](C)[C@H](CN(C)C(=O)Nc2ccccc2)OCCCC[C@H](C)Oc2ccc(NC(=O)Nc3cccc4ccccc34)cc2C1=O`, the cytotoxicity call in the assay with HSkMC and in the assay with HepG2 was “inactive” each time. For the same compound, the growth inhibition call with S. aureus RN4220 is “inactive”.

Regarding `C[C@H](CO)N1C[C@H](C)[C@H](CN(C)C(=O)C2CCOCC2)Oc2ncc(C#Cc3cccc(F)c3)cc2C1=O`, the cytotoxicity call in the assay on HSkMC and in the assay with HepG2 was “inactive” each time. Further, the growth inhibition call in the assay on S. aureus RN4220 was “inactive”.

For `C[C@H]1CN([C@@H](C)CO)C(=O)Cc2cc(NS(=O)(=O)c3cccs3)ccc2O[C@H]1CN(C)S(=O)(=O)c1cccs1`, the cytotoxicity call in the assay with HSkMC and in the assay with HepG2 was “inactive” each time. Further, the growth inhibition call in the assay with S. aureus RN4220 is “inactive”.

As for `CN[C@@H]1[C@@H](O[C@H]2O[C@H](CO)[C@@H](N)[C@H](O)[C@H]2O)O[C@H]2C[C@@H](N)[C@H](O[C@H]3[C@H](O)[C@@H](O)[C@H](N)C[C@@H]3N)O[C@@H]2[C@@H]1O`, the cytotoxicity call in the assay with HSkMC and in the assay with HepG2 was “inactive” in each case. Besides, the growth inhibition call with S. aureus RN4220 was “inactive”.

As for `COc1ccc(S(=O)(=O)N(C)C[C@@H]2Oc3ccc(NC(=O)Nc4c(C)noc4C)cc3C(=O)N([C@H](C)CO)C[C@H]2C)cc1`, the cytotoxicity call in the assay on HSkMC and with HepG2 was “inactive” each time. Also, the growth inhibition call in the assay on S. aureus RN4220 is “inactive”.

Consider `C[C@H](O)c1nc(=O)c2ccccc2[nH]1`, for which the cytotoxicity call in the assay with HSkMC and with HepG2 was “inactive” throughout. Further, the growth inhibition call in the assay on S. aureus RN4220 was “inactive”.

With `COCC(=O)Nc1ccc2c(c1)C(=O)N(C)C[C@@H](OC)[C@@H](C)CN(Cc1ccccc1F)[C@@H](C)CO2`, the cytotoxicity call with HSkMC and in the assay with HepG2 was “inactive” throughout. In addition, the growth inhibition call in the assay on S. aureus RN4220 was “inactive”.

On to `C[C@H]1CN([C@@H](C)CO)C(=O)c2cccc(NS(=O)(=O)c3cn(C)cn3)c2O[C@H]1CN(C)S(C)(=O)=O`, for which the cytotoxicity call in the assay on HSkMC and in the assay with HepG2 was “inactive” each time. Moreover, in the assay with S. aureus RN4220, the growth inhibition call was “inactive”.

As to `C[C@@H]1CN([C@@H](C)CO)C(=O)c2cc(NC(=O)Cn3cnnn3)ccc2O[C@H]1CN(C)C(=O)Nc1ccccc1`, the cytotoxicity call in the assay with HSkMC and in the assay with HepG2 was “inactive” throughout. Further, the growth inhibition call with S. aureus RN4220 was “inactive”.

Take `C[C@H](CO)N1C[C@H](C)[C@H](CN(C)S(=O)(=O)c2ccc(F)cc2)OCCCC[C@H](C)Oc2ccc(NC(=O)NC3CCCCC3)cc2C1=O`: the cytotoxicity call in the assay on HSkMC was “inactive”. Moreover, the cytotoxicity call in the assay on HepG2 is “active”. The growth inhibition call in the assay on S. aureus RN4220 was “inactive”.

As to `C[C@@H]1CN([C@@H](C)CO)C(=O)Cc2cc(NS(=O)(=O)c3ccc(Cl)cc3)ccc2O[C@@H]1CN(C)S(C)(=O)=O`, the cytotoxicity call with HSkMC and in the assay on HepG2 was “inactive” throughout. Further, in the assay on S. aureus RN4220, the growth inhibition call is “inactive”.

For `Cc1ccc(S(=O)(=O)N2C[C@@H](O)COC[C@@H]3O[C@H](CC(=O)NCCCN(C)C)CC[C@H]32)cc1`, the cytotoxicity call in the assay on HSkMC and in the assay with HepG2 was “inactive” throughout. Moreover, in the assay with S. aureus RN4220, the growth inhibition call is “inactive”.

Take `NNc1ccc2c(N)[nH]nc2c1`: the cytotoxicity call with HSkMC and with HepG2 was “inactive” in each case. In addition, in the assay on S. aureus RN4220, the growth inhibition call is “inactive”.

On to `COc1ccc(NC(=O)Nc2ccc3c(c2)C(=O)N([C@H](C)CO)C[C@H](C)[C@H](CN(C)Cc2ccccc2)OCCCC[C@H](C)O3)cc1`, for which the cytotoxicity call with HSkMC was “inactive”. Also, in the assay on HepG2, the cytotoxicity call is “active”. Besides, the growth inhibition call with S. aureus RN4220 is “inactive”.

Take `COc1cccc(C#Cc2ccc3c(c2)O[C@H](CN(C)S(=O)(=O)c2ccccc2F)[C@@H](C)CN([C@@H](C)CO)S3(=O)=O)c1`: the cytotoxicity call in the assay with HSkMC and with HepG2 was “inactive” throughout. For the same compound, the growth inhibition call in the assay on S. aureus RN4220 is “inactive”.

`C[N+](C)(C)CCCC[C@@H]1NC(=O)[C@@H]2C[C@H](C(=O)NCCCCCCNC(=O)CS)[C@H](c3ccc(O)cc3)N2C1=O`: the cytotoxicity call in the assay on HSkMC and in the assay with HepG2 was “inactive” throughout. For the same compound, the growth inhibition call in the assay on S. aureus RN4220 was “inactive”.

As to `CC1=C(C(=O)O)N2C(=O)C(NC(=O)C(N)C3=CCC=CC3)C2SC1` (centres undefined), the cytotoxicity call in the assay with HSkMC and with HepG2 was “inactive” in each case. Moreover, the growth inhibition call with S. aureus RN4220 was “inactive”.

For the compound `O=C(C[C@H]1CC[C@@H]2[C@H](COC[C@@H](O)CN2S(=O)(=O)c2ccc(F)cc2)O1)NCc1ccc(Cl)c(Cl)c1`, the cytotoxicity call in the assay with HSkMC and in the assay with HepG2 was “inactive” in each case. In addition, in the assay with S. aureus RN4220, the growth inhibition call is “inactive”.

Regarding `COc1ccc(NC(=O)Nc2cccc3c2O[C@H](CN(C)Cc2ccc(C(=O)Nc4ccccc4N)cc2)[C@H](C)CN([C@H](C)CO)C3=O)cc1`, the cytotoxicity call with HSkMC and with HepG2 was “inactive” in each case. Further, the growth inhibition call in the assay with S. aureus RN4220 is “inactive”.

Regarding `Cc1ccnc(N)c1`, the cytotoxicity call in the assay on HSkMC and with HepG2 was “inactive” in each case. The growth inhibition call in the assay with S. aureus RN4220 is “inactive”.

For `C[C@@H]1CN([C@@H](C)CO)C(=O)c2cccc(NS(=O)(=O)c3cn(C)cn3)c2O[C@@H]1CN(C)C(=O)Nc1ccc(F)cc1`, the cytotoxicity call in the assay with HSkMC and in the assay with HepG2 was “inactive” each time. Further, the growth inhibition call in the assay on S. aureus RN4220 is “inactive”.

Regarding `OC[C@@H]1CC[C@@H]2O[C@H](CCc3ccc(C#CCc4ccccc4)cc3)[C@H](n3cc(-c4ccccc4)nn3)C[C@@H]2O1`, the cytotoxicity call with HSkMC and in the assay with HepG2 was “inactive” each time. Moreover, in the assay with S. aureus RN4220, the growth inhibition call was “inactive”.

Consider `COc1ccc(S(=O)(=O)Nc2ccc3c(c2)C(=O)N([C@H](C)CO)C[C@@H](C)[C@@H](CN(C)Cc2ccc(C(=O)O)cc2)OCCCC[C@H](C)O3)cc1`, for which the cytotoxicity call in the assay with HSkMC and with HepG2 was “inactive” in each case. Moreover, the growth inhibition call in the assay on S. aureus RN4220 was “inactive”.

For the compound `CC(=O)NCCCC[C@@H]1NC(=O)[C@@H]2C[C@H](C(=O)NCCCCCCN(C)C)[C@H](c3ccc(O)cc3)N2C1=O`, the cytotoxicity call in the assay on HSkMC and with HepG2 was “inactive” each time. The growth inhibition call in the assay on S. aureus RN4220 was “inactive”.

As for `Cc1noc(C)c1NC(=O)Nc1cccc2c1O[C@@H](CN(C)S(C)(=O)=O)[C@H](C)CN([C@@H](C)CO)C2=O`, the cytotoxicity call in the assay on HSkMC (human skeletal muscle cells) and in the assay with HepG2 was “inactive” in each case. For the same compound, the growth inhibition call with S. aureus RN4220 was “inactive”.

Consider `CCCc1cc(-c2nc(-c3ccc(C)cc3)cs2)ccn1`, for which the cytotoxicity call in the assay with HSkMC and with HepG2 was “inactive” in each case. In addition, the growth inhibition call with S. aureus RN4220 was “inactive”.

Consider `CN(C)C(=O)C[C@H]1C=C[C@@H](NC(=O)C2CC2)[C@@H](CO)O1`, for which the cytotoxicity call with HSkMC and with HepG2 was “inactive” each time. In addition, the growth inhibition call in the assay on S. aureus RN4220 was “inactive”.
